Reference: the supplement of paper PMC12015411
Bacterial growth in Mueller-Hinton broth at 37 °C with the drug at the dose given, alone or with nitroxoline. Checkerboards on E. coli BW25113: OD600 at the end of exponential growth as a fraction of no-drug wells. Colistin series: OD595 at 10.75 h as a fraction of the colistin-free well. 1 = full growth, lower = more inhibition. No active / inactive call per well. Checkerboard doses stop near each drug's IC75, and their values pile up at 1, as if capped there. Colistin and gentamicin are mixtures; one drawing stands for each.

Test system: Escherichia coli BW25113
Assay: growth relative to no-drug wells (fraction of no-drug control); higher = more growth, less inhibition
Procedure: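 8 x 8 checkerboard in cation-adjusted Mueller-Hinton broth at 37 °C; OD600 at the end of exponential growth as a fraction of no-drug wells, two biological replicates.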

NC[C@H]1O[C@H](O[C@H]2[C@H](O)[C@@H](O[C@H]3O[C@H](CO)[C@@H](O)[C@H](N)[C@H]3O)[C@H](N)C[C@@H]2N)[C@H](N)C[C@@H]1O [Tobramycin]
nitroxoline concentration 0 µg/ml
Settings	growth
0.0187 µg/ml	0.917
0.0325 µg/ml	0.968
0.0375 µg/ml	0.9483
0.065 µg/ml	0.845
0.075 µg/ml	0.808
0.13 µg/ml	0.706
0.15 µg/ml	0.641

NC[C@H]1O[C@H](O[C@H]2[C@H](O)[C@@H](O[C@H]3O[C@H](CO)[C@@H](O)[C@H](N)[C@H]3O)[C@H](N)C[C@@H]2N)[C@H](N)C[C@@H]1O [Tobramycin] + Oc1ccc([N+](=O)[O-])c2cccnc12 [nitroxoline]
growth
Settings	nitroxoline concentration 0.136 µg/ml	nitroxoline concentration 0.255 µg/ml	nitroxoline concentration 0.374 µg/ml	nitroxoline concentration 0.493 µg/ml	nitroxoline concentration 0.612 µg/ml	nitroxoline concentration 0.731 µg/ml	nitroxoline concentration 0.85 µg/ml
0.0187 µg/ml	1	0.975	0.783	0.504	0.511	0.347	0.245
0.0325 µg/ml	1	1	0.786	0.552	0.475	0.412	0.251
0.0375 µg/ml	1	1	0.819	0.573	0.519	0.399	0.286
0.065 µg/ml	1	1	0.849	0.701	0.5	0.395	0.257
0.075 µg/ml	1	1	0.893	0.647	0.487	0.394	0.226
0.13 µg/ml	0.799	0.877	0.852	0.762	0.519	0.429	0.244
0.15 µg/ml	0.671	0.724	0.625	0.555	0.423	0.341	0.258

COc1cc(Cc2cnc(N)nc2N)cc(OC)c1OC [Trimethoprim]
nitroxoline concentration 0 µg/ml
Settings	growth
0.0224 µg/ml	0.849
0.042 µg/ml	0.891
0.0616 µg/ml	0.322
0.0812 µg/ml	0.235
0.1008 µg/ml	0.0333
0.1204 µg/ml	0.0347
0.14 µg/ml	0

COc1cc(Cc2cnc(N)nc2N)cc(OC)c1OC [Trimethoprim] + Oc1ccc([N+](=O)[O-])c2cccnc12 [nitroxoline]
growth
Settings	nitroxoline concentration 0.12 µg/ml	nitroxoline concentration 0.225 µg/ml	nitroxoline concentration 0.33 µg/ml	nitroxoline concentration 0.435 µg/ml	nitroxoline concentration 0.54 µg/ml	nitroxoline concentration 0.645 µg/ml	nitroxoline concentration 0.75 µg/ml
0.0224 µg/ml	0.884	0.946	1	1	0.9964	0.8545	0.814
0.042 µg/ml	0.714	0.841	1	0.993	0.866	0.757	0.6972
0.0616 µg/ml	0.512	0.628	0.807	0.805	0.769	0.655	0.6183
0.0812 µg/ml	0.235	0.381	0.499	0.52	0.556	0.5565	0.517
0.1008 µg/ml	0.111	0.192	0.527	0.494	0.437	0.464	0.45
0.1204 µg/ml	0.107	–	0.447	0.409	0.407	0.4193	0.411
0.14 µg/ml	0.093	–	0.357	0.357	0.36	0.357	0.393
